Data taken from the supplement of paper PMC10126150.
Sequences with one replicate were seen in a single cluster, so their values are uncertain.

Test system: ATP
Assay: switch fluorescence ratio, 500 uM ATP over buffer (Cy3 cluster intensity, sum of 5 cycles each) (fold (ratio)); higher = stronger signal-on switching upon ATP binding; sequences stand for … in TCGTCGGCAGCGTCAGATGTGTATAAGAGACAGTTTTTTTTTTTTTTTTTTTTTTTTT…TC
Settings: aptamer strand: ATP DNA aptamer (quencher-CACCTGGGGGAGTATTGCGGAGGAAGG + anchor), 100 nM annealed; ATP concentration: 500 uM; one replicate
In short: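 Cy3-labelled switching-strand clusters on a modified Illumina MiSeq flow-cell were annealed to 100 nM quencher-labelled ATP aptamer and imaged first in selection buffer, then after 15 min with 500 uM ATP at 22 °C. NaOH stripping and re-annealing separated each of five buffer/ATP cycles, and clusters outside 100-1000 RFU were excluded. The fluorescence ratio sums target-cycle Cy3 intensity over buffer-cycle Cy3 intensity per cluster and averages it per switch-domain sequence.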
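Note: ATP exposure 15 min at 22 °C before imaging.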

Sequence	switch fluorescence ratio
GTAAGTGATC	1.01
TTGAGCATGA	1.04
ACACGAGAAG	1.04
AGATGCCGAG	1.04
GCAGGAATGC	1.45
TGCATCCTGA	0.988
AGATTCTGGA	0.976
CACGATGTTT	0.992
AGTAATTAA	0.971
GCCCCGTAGA	1.09
AAATATTTTG	1.02
ACATTGGCTG	1.06
AGGTTTTCTT	0.972
TGATTTCAGA	0.985
TCATGCAGGT	1.04
CAAGCCAGG	1.21
CAGTTGGTCC	0.966
ATTGGAAAAA	1.06
GAATGTGGG	0.968
AGAATCCAAA	1.03
ATTTCAACTT	0.997
GAACTTAAAC	1.09
TCGGTTAAC	1.07

Sequence	switch fluorescence ratio
TTAGTATGG	0.991
TTGGACGGTG	0.987
GGCTGAAAGA	1.04
GATTACCCCA	1.04
CTCAGATTAT	0.997
TACCGTTGGA	1.05
GTATCGAAAT	1.04
TCTCAACTGT	0.958
TATGTTCCAT	1.01
GGCCGTAGGA	0.989
CTTACTGCCA	1.18
CACTGAATGG	0.982
TAAGAATTCT	0.976
TTCAATTGCG	1.02
CCGGATTTGT	1.05
GGGAGCCAAA	0.967
ATGGGACATG	1.06
GAGATTCGAG	0.951
AGGGCCAAGG	0.98
AAGTCAGTAA	0.951
CACGTAAGCG	1.09
TTTCGGCCGT	0.983
CTCGTCTTGA	0.988

Sequence	switch fluorescence ratio
TATAGTTTAG	0.979
GGGTATTCGG	0.995
GTGCAGAGGG	0.981
TTTCGCAGCT	1.54
TATGTAACGA	0.98
GAGGCCCGTC	0.958
CTGGACACGC	1.05
ACTGTTATCA	1.06
GCTTCATTCT	0.969
CGGCACTGGG	0.993
TATTCTGAGG	1
TTCATTCAGC	1.02
GATTGATCCC	1.01
TTCGTTTGAG	1.01
TTTGGTCGGC	0.986
GTGATCAG	0.992
TCCTCAAAAG	0.987
AGCATTTAAC	1.38
AACGCAGTGG	0.983
GCATTTGACA	1.07
ACGGAACCTA	1.11
GGTGGAAATT	1.07
ACGGTTATCT	1.02

Sequence	switch fluorescence ratio
AGAAGTTCGG	1.05
ACTGCTTAGA	0.996
AACTCGCT	0.991
TGATCAGCAG	1.02
GGTACGTTCG	0.992
TTACTAGTCG	1.05
ATCCGCGTTT	1.64
TATGCCCCCG	1.04
ATGCTGGTCA	0.957
GAACTGGATC	1.06
GCAGCAGTGG	2.07
TATCAGGGCG	0.991
CGGTGGCCAG	0.987
CCCAAGTATG	1.05
ACTCATAACG	1.08
TCAAGTTGTG	0.943
CGAGGTATGA	1.04
AGCGGATAGT	1.05
TGGACGGGCA	1.12
CTGAATGCGG	0.964
CGATCAGTTA	0.984
CGCGCGAAGG	1.02
TGTGGCTTCA	1.06

Sequence	switch fluorescence ratio
TAACCAGAGT	1
TTCCAGTGCC	1.12
TGGACGGGAA	1.16
AGAGGCACGG	1.03
TGTGCCAGTG	1.03
GGTCTACAGC	1.03
AGGATAACGA	1.04
TTGTGCCTA	0.982
TGCTGTTTT	0.969
AGATTGGAGT	1.03
GGCATATGGT	0.957
GGTCTCAGCA	0.972
ATCGCGGCTG	0.993
TTATGACCCG	1.1
GACACAGTTT	1.08
GGCAATTCCA	1.03
CCAGATGGC	1.06
GGCGTAGGAC	1.04
TTGATCCGAA	1.05
CGGCTCTTGA	0.961
GATCCACTGG	1.03
TGAATAGGCG	0.963
GGCTGAGTCG	0.975

Sequence	switch fluorescence ratio
AACTATGAGC	0.984
AAATGTCTGC	0.993
GCTCGGGCTA	0.986
TACAAGGGGT	1.04
ACGACCCAAT	3.18
GCTCCTCGA	1.88
TGTGTACGAA	0.965
CATAGGGCGA	0.993
GGACTGGTGT	1.01
GGGAACGCGA	1.09
GCGATGCGGT	1.23
CTAGATTGAC	1.03
TCCACAGGAG	1.49
GGAGAAAAGT	0.988
TATCAAGAT	1.03
TCCATCACTG	1.02
TTAAAGTAAC	1.06
CGGGGCGGAG	1.02
GGAACGCATT	1.18
GTGGGGTACC	0.975
AAAACCGACG	0.963
CATATATGGA	1.01
GTTATATCTG	1.03

Sequence	switch fluorescence ratio
AGCGCGAATA	1.09
TAGCGACATG	0.98
CGGGTGACCT	1.03
ATGGGGGCAA	1.04
AGGCGCGAGC	1.03
GTTGGCTGCT	1.06
ACGTAGCGGA	1.65
ACGAAGACGT	0.976
TCGATAGGCT	0.959
GCCCAGTTGT	1.77
TCTAGGACT	1.05
TAGTACGATG	1.03
TAGTCCTACT	1.01
ATGGAACCCC	1.13
CATGTGGGTT	0.993
ATACTATGCC	0.946
TCCGCATTGA	1.91
TCGAGGTGC	0.986
ATGATGTTTT	0.993
